Here are results for 43 compounds from ChEMBL document CHEMBL4888484, “Replenishing the malaria drug discovery pipeline: Screening and hit evaluation of the MMV Hit Generation Library 1 (HGL1) against asexual blood stage Plasmodium falciparum ,using a nano luciferase reporter read-out” (2022).

Out of some 150,000 compounds screened, about 540 (0.36%) showed an effect of 50% or more. The list shows a part of the results.

The subject of the assay is Plasmodium falciparum. The experiment in a line: Primary screen in NF54 nanoGlo assay, in single point, at 2uM, 72h; a lower Z score goes with more inhibition. The following applies: timepoint 72 hour. The assay is classed as functional, Erythrocyte.
`O=C(c1cn[nH]c1)N(CCO)Cc1cccs1`: the “% Inhibition” value is -6% and the Z score was 1.21.
As to `CCO[C@H]1COC[C@@H]1NC(=O)c1ccc(C#N)nc1`, the “% Inhibition” value was -4% and the Z score was 0.73.
On the same counts, the results for `O=C1NCCCC[C@@H]1NCc1cnc(N2CCOCC2)nc1` are -7% and 0.78.
On the same counts, the results for `CCC[C@H](C)NS(=O)(=O)CCN1CCOC1=O` are -8% and 1.2.
On to `Cc1cnc(C[C@H]2CCCN(C(=O)c3ccoc3)C2)n1C(C)C`, for which the “% Inhibition” value was 6% and the Z score was -0.87.
Regarding `Cc1ccc(C(=O)N2CCC3(CCCCCC3)C2)cc1OCCN`, the “% Inhibition” value is given as -17% and the Z score came to 2.5.
In the same order, the values of `Cc1ccnc(NCCNc2ccnc(C(=O)N3CCOCC3)c2)c1` are 0% and -0.01.
With `COc1cccc(C2=C[C@@H](c3ccc(Cl)cc3)n3nnnc3N2)c1`, the “% Inhibition” value is on record as -4% and the Z score was found to be 0.46.
On the same counts, the results for `O=C(Nc1ccsc1C(=O)NC1CCCC1)c1cnccn1` are -2% and 0.32.
In the same order, the values of `COc1ccc(C(=O)CCC(=O)N2C[C@H]3CC[C@@H](C2)N(C)C3)cc1` are -13% and 1.24.
On the same counts, the results for `Cc1ccc(S(=O)(=O)N(CC(=O)N2CCOCC2)CC(=O)N2CCOCC2)cc1` are -15% and 1.87.
For the compound `COC1(Cn2ncc3ncccc32)CCC1`, the “% Inhibition” value is given as -6% and the Z score was determined as 0.65.
In the same order, the values of `c1ccc(CN2CC3CCC(NCc4cncs4)C3C2)cc1` (stereo unspecified) are 0% and -0.03.
Take `COc1ccc(CC(=O)N2CCN(S(=O)(=O)c3c(C)nn(C(C)C)c3C)CC2)cc1Cl`: the “% Inhibition” value was -5% and the Z score is on record as 0.5.
On the same counts, the results for `C[C@@H](C(=O)Nc1cccc2c1OCC(=O)N2)n1nnnc1C(C)(C)C` are 7% and -1.43.
Regarding `Cc1cc(-c2ccc([C@H](C)N3CCCCC3)cc2)cnc1-n1cnnc1`, the “% Inhibition” value amounted to 6% and the Z score is recorded as -0.78.
With `CC(C)N(Cc1ccccc1)C(=O)Cc1csc(-c2cccnc2)n1`, the “% Inhibition” value was -7% and the Z score is given as 0.9.
In the same order, the values of `O=S(=O)(NC[C@H]1Cc2ccccc21)c1cccnc1` are -9% and 1.8.
On the same counts, the results for `O=S(=O)(c1ccc(F)cc1)N1CCN(c2cnn3cnnc3c2)CC1` are -7% and 1.01.
For `[2H]c1c([2H])c([2H])c(C(=O)c2sc(N3CCCCCC3)nc2-c2ccccc2)c([2H])c1[2H]`, the “% Inhibition” value is given as -3% and the Z score is 0.43.
As to `CCOC(=O)N1CCC(N2CCC3(CC2)C[C@@H]3C(=O)Nc2cc(C)cc(C)c2)CC1`, the “% Inhibition” value is reported as -12% and the Z score was 1.34.
In the same order, the values of `Cc1n[nH]c(NC(=O)COc2ccc(F)c(F)c2)c1-c1cccc(Cl)c1` are -7% and 0.89.
As to `CC(C)c1ccc(CN[C@@H](C)CCc2ccco2)cc1`, the “% Inhibition” value is listed as 0% and the Z score was determined as 0.03.
For `C=CCc1cc(-c2nccn2Cc2cc(O)ncn2)cc(OC)c1O`, the “% Inhibition” value is reported as 4% and the Z score was -0.57.
In the case of `CCCc1nc(C(=O)N2CCC(OC)(c3ccccc3)CC2)cs1`, the “% Inhibition” value is 12% and the Z score is given as -1.52.
On the same counts, the results for `O=C1C2CC=CCC2C(=O)N1c1ccc(OCc2ccccc2)cc1` (stereo unspecified) are 2% and -0.34.
With `Cc1cc(C)cc(NC(=O)Cn2nc3c(N4CCc5ccccc5C4)nccn3c2=O)c1`, the “% Inhibition” value is recorded as -15% and the Z score stood at 1.46.
For the compound `Cc1ccc(OC2CCN(C(=O)Cc3cccc4ccccc34)CC2)nn1`, the “% Inhibition” value is -16% and the Z score is given as 3.05.
In the case of `CNC(=O)c1cn(C[C@@H]2CC(F)(F)CN2Cc2cc(F)cc(F)c2)nn1`, the “% Inhibition” value is on record as -3% and the Z score was found to be 0.51.
Regarding `CCc1nc2c(c(OC3CCN(S(=O)(=O)c4cccc(OC)c4)CC3)n1)CCOCC2`, the “% Inhibition” value is -8% and the Z score was 1.
For the compound `O=C(NCCN1CCC(O)CC1)[C@H]1C[C@@H]1c1ccccc1`, the “% Inhibition” value is given as -8% and the Z score worked out at 1.2.
In the same order, the values of `Cc1cc(F)ccc1S(=O)(=O)N1CC(N2C(=O)COC2=O)C1` are -6% and 1.07.
Consider `O=C(NCc1ccccc1)c1nc(-c2ccnc(N3CCOCC3)c2)no1`, for which the “% Inhibition” value stood at 3% and the Z score is on record as -0.45.
With `C[C@H]1CN(Cc2cn3ccccc3c2C#N)CCO1`, the “% Inhibition” value was 0% and the Z score is listed as 0.03.
In the same order, the values of `Cc1nc(C(C)C)oc1C(=O)N1CCC[C@@]2(CCOC2)C1` are -14% and 1.67.
On to `CCS(=O)(=O)N[C@H](c1cccs1)C(C)(C)C`, for which the “% Inhibition” value is given as -9% and the Z score turned out to be 0.89.
In the same order, the values of `Brc1cnn([C@H]2CCOC2)c1` are -9% and 1.74.
In the same order, the values of `N#C[C@@H](C(=O)c1ccc2c(c1)COC2)c1ccccn1` are -5% and 0.47.
On the same counts, the results for `O=C(c1ccoc1)N1CCOc2ccc(N3CCCC3)cc2C1` are -4% and 0.81.
Regarding `COCc1cn([C@@H]2CC[C@H]3CCOc4ccccc4C(=O)N4CCN(C5CCC5)C[C@H]4C(=O)NC[C@H]2O3)nn1`, the “% Inhibition” value is on record as -7% and the Z score was found to be 0.87.
As to `CC(C)c1nnc(N2CCN(C(=O)c3cccc(F)c3)CC2)o1`, the “% Inhibition” value is given as -6% and the Z score came to 0.96.
On the same counts, the results for `O=C(CCC(=O)c1ccccc1)N[C@@H]1COC2(CCCCC2)C1` are -24% and 2.57.
For `O=C(Nc1ccc(F)cc1)[C@@H]1CNCCN1C(=O)Cc1c[nH]c2ccccc12`, the “% Inhibition” value was 6% and the Z score is -1.09.
